The record followed here is paper PMC12136788.

Some of the results follow.

The labels stand for the following.
T1: UNK ZnF1-3 (human, UniProt Q9C0B0 31-174)
T1 sequence: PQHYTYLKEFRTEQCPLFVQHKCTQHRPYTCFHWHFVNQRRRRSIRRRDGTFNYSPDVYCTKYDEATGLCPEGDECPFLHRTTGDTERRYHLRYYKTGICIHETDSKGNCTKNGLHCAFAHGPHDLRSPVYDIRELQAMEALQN

B1: chr8:101937209:101937210:-_ENSG00000164924_ENST00000353245|hu_hu|FALSE|FALSE (ssRNA)
RNA: GGGAGUUCUACAGUCCGACGAUCAUCACCAGCGGCAACCUCAGCCAAGUAACGGUAGUAAUCUCCUUUCAUUUUCAAAUAGAAGACUUUGCUCUCUGCUUGUGAAGCAUUGGGGAUCAAGAACUUUUCCAAAAGAGACAGUACCAACAGAGGAUUGAGCAUCA
B2: chr3:41265538:41265539:+_ENSG00000168036_ENST00000349496|hu_hu|FALSE|FALSE (ssRNA)
RNA: GGGAGUUCUACAGUCCGACGAUCCAUGUCCAACUCCAUCAAAUCAGCUUGAGUAGCCAUUGUCCACGCUGGAUUUUCAAAACAGUUGUAUGGUAUACUUCAAAUACCCUCAGGGGAACAGGCUCCUCCCGCCGCGGGAGUCCGCAACAGAGGAUUGAGCAUCA
B3: chr12:39756943:39756944:-_ENSG00000139116_ENST00000544797|hu_mus|hu_hu_hu_mus_False|68_98 (ssRNA)
RNA: GGGAGUUCUACAGUCCGACGAUCGGUUUGGCUGUUACCCCCGAGGGAAUCCUGCAAGAGUCUUGUCAGCUUGGAAUCUCUGUAAGGGACAUGGGUGGCUCUCUUGCUCUUGUCCCCCAAGGCGCUGAUUACAUUCCCAAGAGCCAACAGAGGAUUGAGCAUCA
B4: chr2:26507767:26507768:+_ENSG00000138029_ENST00000317799|hu_mus|FALSE|FALSE (ssRNA)
RNA: GGGAGUUCUACAGUCCGACGAUCCUUGGUUUUCCUACCCAUGUAGUUUUGUGCAAACCAAUCAGAAUCCAUGGCUUUAAAGUUAGCUAAAAUCUGGCCUGAGAAGGCUUCAUGAAAUUCAAAAGCAUCGAUAUCAUUCAUGGUCAACAGAGGAUUGAGCAUCA
B5: chr22:19452774:19452775:-_ENSG00000070010_ENST00000399523|hu_hu|hu_hu_hu_mus_False|38_108 (ssRNA)
RNA: GGGAGUUCUACAGUCCGACGAUCCUUUUCAUUAUAGUUGAUAGCAAUCACAUCUCCAGUCGUCAGACAGGCGAAGUUUCUCAAUGCAUUUUCUAAUACGGCUUUGGGGUUGGUAAUAUCCAGGAAGUCUGGGCUCUGAGGCUGCAACAGAGGAUUGAGCAUCA
B6: chr10:33190432:33190433:-_ENSG00000150093_ENST00000302278|hu_mus|hu_hu_hu_mus_True|48_68 (ssRNA)
RNA: GGGAGUUCUACAGUCCGACGAUCUACAUUUUCCAAACCUGCAUGUGAAUAAAACCCUGGCCACAGAGCCCUAAAGCUACCCUACUGUGACUAUGGAGCUGCUGCUGUGAGCUUGGUGUUGCAAAAUCCGCCUGAGUAGGAUUCCAACAGAGGAUUGAGCAUCA
B7: chr7:4964383:4964384:-_ENSMUSG00000061374_ENSMUST00000077385|mus_hu|FALSE|FALSE (ssRNA)
RNA: GGGAGUUCUACAGUCCGACGAUCGCAGCGGUAGGGCCGCUCCCCGGUGUGCGAGCGCAGGUGGUUGGCUAGGUUGAAGCUGUGCUUGAAACCCUUGCCGCAGCGCGGACAUGCGUGGGGCUUGAGCGCUGUGUGCCGGGCAAACAACAGAGGAUUGAGCAUCA
B8: chr18:31598358:31598359:-_ENSMUSG00000024261_ENSMUST00000025110|mus_hu|motif|central (ssRNA)
RNA: GGGAGUUCUACAGUCCGACGAUCAUGCAUUUUUCAUAGAAUUUACAAACACUGUGAUAUCAAACACAUUCUCAAAAACUGCGGAAGUACUGACACAAAACCUGACUCAAAAUGUAAAUUUUUCAGUAGACUUAAUUUCUAACUCAACAGAGGAUUGAGCAUCA
B9: chrX:7701523:7701524:-_ENSMUSG00000031166_ENSMUST00000033506|mus_mus|motif|central (ssRNA)
RNA: GGGAGUUCUACAGUCCGACGAUCCAGGCAAGUGUGGGGUCCACCCAAACAGUAGCUGCCAAUGUUGGGGAGUUUGACAACCGGACCUGGUGAAAGCCCCGUGGUUGAACUUAACAUUCUGCACCUAAUUUCCCUACUGCUGUCCAACAGAGGAUUGAGCAUCA
B10: chr7:75932113:75932114:+_ENSG00000106211_ENST00000248553|hu_hu|hu_hu_hu_mus_False|8_58 (ssRNA)
RNA: GGGAGUUCUACAGUCCGACGAUCCUGCGACCACUCAUCGGGCAACCGGGGCACCCCGAAAGCUUGAUCGAAGAGGCGGCUAUGCGGAGGGUACCAGUCCCGGAAUGGUUCCCAGCUCGGGCUCCGCAGCGAGAAGGAGGGCACCAACAGAGGAUUGAGCAUCA
B11: chr4:95690885:95690886:+_ENSMUSG00000028572_ENSMUST00000156910|mus_mus|mus_mus_mus_hu_False|58_108 (ssRNA)
RNA: GGGAGUUCUACAGUCCGACGAUCUUUAUUUUUAGAAAAAUACCAUGCUAAAAUAUUUUCAAAGGCUUAUUUUAUUUUACUAAAAGACACAGGCAAGCAGACACUACAAGAAUAUAUGAAAAUGAAACUCAACAAUAUAACUGUCAACAGAGGAUUGAGCAUCA
B12: chr17:65740002:65740003:+_ENSG00000130935_ENST00000581375|hu_hu|hu_hu_hu_mus_False|8_18 (ssRNA)
RNA: GGGAGUUCUACAGUCCGACGAUCAACAAAUCUUUCUUCCCUGGACGAACAGGAAGAUUCAUAUUAAAAAAAAUAUAUAUCCAUCAAGUUAGGUGUGGUGGCCACACCUUUACUCCCCACUUCAAUUGAAUAUAAUCUCUGAGUCAACAGAGGAUUGAGCAUCA
B13: chr12:74934348:74934349:+_ENSG00000253719_ENST00000519948|hu_hu|FALSE|FALSE (ssRNA)
RNA: GGGAGUUCUACAGUCCGACGAUCUUAUUUUAGCUCUUGCCAAGGUUUGAUUUUUUUUAAGUUAAUGCAAUUCUUUAAGACUAAUCUGUAACUAGGCCCCAAGCCUGAUCAGGACAACUCUAGGACAAGGCAGUAACAGUUCCACAACAGAGGAUUGAGCAUCA
B14: chr2:202488911:202488912:-_ENSG00000155755_ENST00000286196|hu_mus|FALSE|FALSE (ssRNA)
RNA: GGGAGUUCUACAGUCCGACGAUCAUUGAAACAUUUUUCAUAAUCUCCAGUAGCAUUUCAGCAUUAUGUAACAAAAGCUCAAUUGUAAAUACAUGUAUCUUAUAAAAAUACACUUAAAAACACGAGUGGGGAGCGCAGGCGCCACAACAGAGGAUUGAGCAUCA
B15: chr1:145592185:145592186:+_ENSMUSG00000018196_ENSMUST00000111957|mus_mus|FALSE|FALSE (ssRNA)
RNA: GGGAGUUCUACAGUCCGACGAUCGGCCAUGGAACAGUAAGAGCAGGAUGUUUUUGAGAAGAUCACCACACAAUUGUUAGAAAUUGUUUCUUGGAUCUGGUUCACAGGAGUAGUUGUAGACUUCCCCCAAAACGACGAUGUGCUCAACAGAGGAUUGAGCAUCA
B16: chr11:80196919:80196920:+_ENSMUSG00000017421_ENSMUST00000017567|mus_hu|FALSE|FALSE (ssRNA)
RNA: GGGAGUUCUACAGUCCGACGAUCUUCUUCUUCUUGCGACCCAUAACUGUGUUCUACCGGCAAAGUAAAAGGGAGGAGAAAAGAAGCAGGAGAAACGAGGCCAAAAAUCCCUCACUUUCCCAACCCAACGGCUACCACCACGUCCAACAGAGGAUUGAGCAUCA
B17: chr8:95952310:95952311:-_ENSG00000164938_ENST00000448464|hu_hu|FALSE|FALSE (ssRNA)
RNA: GGGAGUUCUACAGUCCGACGAUCUGGGGGUGGGGUGAUAAACCAGCUCUCCUCCAUUGGACAUGACUCAAACUGGAGAAAGCAGGAAUCACUUGUAUCAGCCAAGCACUCAAGAGAUGCCGGUAAACAGGAAAAGACUGAAGGCAACAGAGGAUUGAGCAUCA
B18: chr14:63761926:63761927:+_ENSMUSG00000021939_ENSMUST00000006235|mus_mus|FALSE|FALSE (ssRNA)
RNA: GGGAGUUCUACAGUCCGACGAUCCUGCCAAUGUCAAGCAGAGGGAGAAUUGGUUUAUUGGCACAGACAUUCCUUGUUAAACUACAGGGUUAAGUGGUAACUACAACAAAAAGCAAGUUUUUUUUUCCAGACUAGUUUCAUUGUCAACAGAGGAUUGAGCAUCA
B19: chr14:89338683:89338684:+_ENSG00000165533_ENST00000346301|hu_hu|hu_hu_hu_mus_False|98_98 (ssRNA)
RNA: GGGAGUUCUACAGUCCGACGAUCGUGGUUGUUGUGGACCAGAGCCAGCCUGAAGCAUUGGUGGGCCAAGUUUGUAUCUCCGAUUCCCACAGCUAUGUGCCCCAGGUUGUACCAGACAUCAGCUGCCUCUUCUUCAUUUUCAGCCAACAGAGGAUUGAGCAUCA
B20: chr7:54823571:54823572:-_ENSG00000132432_ENST00000352861|hu_mus|hu_hu_hu_mus_False|28_48 (ssRNA)
RNA: GGGAGUUCUACAGUCCGACGAUCUCCCAUGAUAGCAAAUCCUAUAGCUGUAGCCAUGGCAAUCUUCUGGAAUUCUUUUCUGUCGGGUUUAGUGCAUCUUUUAACCAGCCGAAUGGAGUCCUUUACAAACUGCCGGCUGGGCUCCAACAGAGGAUUGAGCAUCA
B21: chr11:96688998:96688999:-_ENSMUSG00000038615_ENSMUST00000081775|mus_hu|FALSE|FALSE (ssRNA)
RNA: GGGAGUUCUACAGUCCGACGAUCCCACCCGUACCCCAAUCAAACUCAGCAGAAUGGUGAACUGGAGAAGUCCUUCCGUUAAGUAUUUCUUCAGAGAAAGCAUUGCUGAAGGACCAGAAUGUUUAUGCUUUUUGGUUUUUAAAACAACAGAGGAUUGAGCAUCA
B22: chr5:92386950:92386951:-_ENSMUSG00000029397_ENSMUST00000031345|mus_mus|FALSE|FALSE (ssRNA)
RNA: GGGAGUUCUACAGUCCGACGAUCCUGCUGGGCAUGUUGGAGUUUUUCACAGUUGAUGCACUGCACUUCCUUGACUUUGAAACGAUCUAGCUGAUGAUCUUCAUUGGUAUCGUGACACAGCCGGCAGGUAUAAAGCUUGUCACACAACAGAGGAUUGAGCAUCA

The test concerns the target T1, UNK ZnF1-3. In words: nsRBNS (natural sequence RNA bind-n-seq); RBNS binding buffer (assumed for nsRBNS): 25 mM Tris pH 7.5, 150 mM KCl, 3 mM MgCl2, 0.01% Triton X-100, 500 ug/ml BSA, 20 U/ml SUPERase-In, 4 C; UNK is unkempt and MSI1 is Musashi-1; names of the RNAs are library labels; protein concentration not given here; high values mean tight binding.
As for B1, the binding signal was 0.913 enrichment R.
B2 returned a binding signal of 0.915 enrichment R.
Turning to B3, the binding signal amounted to 0.742 enrichment R.
The molecule B4 came in with a binding signal of 0.781 enrichment R.
In turn, B5 came in with a binding signal of 0.747 enrichment R.
For B6, the binding signal turned out to be 0.941 enrichment R.
Take B7: the binding signal turned out to be 0.698 enrichment R.
B8 gave a binding signal of 0.984 enrichment R.
Next, B9: 1.38 enrichment R.
To B10 belongs 1.89 enrichment R.
B11 gave a binding signal of 1.63 enrichment R.
With B12, the binding signal was 1.63 enrichment R.
As to B13, the binding signal is 0.854 enrichment R.
For B14, the binding signal was found to be 0.826 enrichment R.
As for B15, the binding signal is 0.972 enrichment R.
As for B16, the binding signal was found to be 1.33 enrichment R.
Turning to B17, the binding signal amounted to 1.23 enrichment R.
Turning to B18, the binding signal amounted to 1.12 enrichment R.
For the molecule B19, the binding signal stood at 0.676 enrichment R.
Consider B20, for which the binding signal was determined as 0.708 enrichment R.
Consider B21, for which the binding signal was found to be 1.11 enrichment R.
Molecule B22 came in with a binding signal of 0.617 enrichment R.
